The results in this text go back to PubChem BioAssay AID1159614 (National Center for Advancing Translational Sciences (NCATS), 2016).

SMILES strings stand for the structures. Among all 45,000 compounds or so, about 65 (0.1%) were called active. The call rests on the fitted dose curve; in most records, active means well fitted activation curve with a large enough effect; inconclusive means small, poorly fitted or top-dose-only effect; inactive means no such curve, though single readings can be large or run the other way. The list shows a part of the results.

Sequence of UniProt P54803 (P54803 whole entry, looked up): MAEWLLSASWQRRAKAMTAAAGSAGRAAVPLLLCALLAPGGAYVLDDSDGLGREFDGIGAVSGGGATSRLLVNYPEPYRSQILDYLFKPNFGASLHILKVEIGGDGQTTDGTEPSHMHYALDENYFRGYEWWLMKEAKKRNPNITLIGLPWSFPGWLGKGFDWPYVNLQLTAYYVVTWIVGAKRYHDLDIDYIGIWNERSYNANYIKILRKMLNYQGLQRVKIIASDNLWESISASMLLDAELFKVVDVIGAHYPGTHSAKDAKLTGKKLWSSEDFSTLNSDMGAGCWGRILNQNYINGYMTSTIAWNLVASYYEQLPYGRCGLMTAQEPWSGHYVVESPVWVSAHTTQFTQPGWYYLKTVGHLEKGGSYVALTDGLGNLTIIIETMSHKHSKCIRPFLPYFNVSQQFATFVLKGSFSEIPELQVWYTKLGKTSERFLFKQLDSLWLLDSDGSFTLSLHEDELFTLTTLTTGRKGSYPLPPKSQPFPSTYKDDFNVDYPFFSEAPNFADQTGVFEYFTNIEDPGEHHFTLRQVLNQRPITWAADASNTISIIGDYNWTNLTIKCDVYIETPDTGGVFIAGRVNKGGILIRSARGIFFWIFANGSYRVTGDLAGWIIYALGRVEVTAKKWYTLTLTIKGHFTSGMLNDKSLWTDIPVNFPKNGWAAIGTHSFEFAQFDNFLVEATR

The target of this assay is Galactocerebrosidase (Homo sapiens) (UniProt P54803). The assay can be described thus: A Novel Cell-Based Assay to Identify Small Molecules for B -Galactocerebrosidase. Further: 0% is about no effect; nearly all actives have a fitted effect of over 65% in size. Particulars: 145M-Twi-hGALC-G270D cells, HMU-beta-Gal fluorescence, 48 h; series mostly up to 57.5 µM; activation: at the top concentration. The gist of the method:
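qHTS, 1536-well; 145M-Twi-hGALC-G270D cells (WT line also made) in DMEM/F12 + 10% FBS; compound incubation on live cells; HMU-β-gal 0.1 mM final, pH 5.2, NaTC; carbonate stop; fluorescence increase = enhanced residual activity.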
As for `CCc1nc(Oc2cccc(F)c2)c2oc3ccccc3c2n1`, the “activation” value is inactive: -11.8%.
In the case of `CCN(CC)c1ccc(NS(=O)(=O)c2cc3[nH]c(=O)c(=O)[nH]c3cc2C)c(C)c1`, the “activation” value was inactive: -8.23%.
Regarding `Cc1cc2oc(C(=O)Nc3ccc(S(=O)(=O)N4CCCCCC4)cc3)cc(=O)c2cc1C`, the “activation” value was inactive: -15.7%.
`Cc1ccc(NC(=O)Nc2nnc(N(C)Cc3ccccc3)s2)c(C)c1`: the “activation” value is inactive: -9.23%.
As to `CCN(CC)c1ccc(NC(=O)CSc2nc(-c3cccs3)cc(C(F)(F)F)n2)cc1`, the “activation” value was inactive: -14%.
In the case of `CC(C)c1ccc(OC(=O)c2cc(-c3ccccc3)on2)cc1`, the “activation” value is inactive: -19%.
In the case of `COc1ccc(Cn2c(=O)c3oc4ccccc4c3n(CC(=O)Nc3ccc(F)cc3F)c2=O)cc1`, the “activation” value was inactive: -8.65%.
For the molecule `O=C(NCCc1ccccc1Cl)c1ccc2c(c1)nc1n2CCCCC1`, the “activation” value was inactive: -2.59%.
With `CCN(CC)c1ccc(-c2nc(-c3ccccc3C)no2)cc1[N+](=O)[O-]`, the “activation” value is inactive: -24.8%.
Consider `Cc1ccc(C)c(Cn2c(C3CC(=O)N(c4ccccc4C)C3)nc3ccccc32)c1` (configuration not stated), for which the “activation” value is inactive: -41.9%.
Consider `CC1=C(C(=O)Nc2ccccc2)C(c2cccn2C)n2ncnc2N1` (configuration not stated), for which the “activation” value was inactive: -21.9%.
Consider `Cc1ccc(Nc2nc(C)nc(N)c2S(=O)(=O)c2ccccc2)cc1`, for which the “activation” value was inactive: -4.34%.
The result for `Cc1ccc(CNC(=O)CSc2n[nH]c(-c3ccc(F)cc3)n2)cc1` reads inactive: -26.6%; that for `O=S(=O)(c1ccc2nc(N3CCN(c4cccc(Cl)c4)CC3)ccc2c1)N1CCCCC1`, inactive: -6.12%; that for `Cc1cc(NC(=O)C2CCN(S(=O)(=O)c3ccc(Br)s3)CC2)ccc1Br`, inactive: 0.823%.
The result for `Cc1ccc(Cl)cc1N1CCN(Cc2nnc(-c3ccc4c(c3)OCO4)o2)CC1` reads inactive: -12.6%.
The result for `COc1cc2c(=O)n(CCC(=O)NCC3CCCO3)c(=O)n(CC(=O)Nc3ccc(C)c(C)c3)c2cc1OC` (configuration not stated) reads inactive: -0.547%.
As for `CCC(C)NC(=O)c1nn(-c2ccc(C)cc2)c(=O)n(C)c1=O` (configuration not stated), the “activation” value was inactive: -14%.
The result for `COc1ccc(-c2cc(C(F)(F)F)n3nc(C(=O)Nc4ccccc4SC)cc3n2)cc1OC` reads inactive: -9.96%; that for `Cc1ccc(OCC(=O)N(Cc2ccco2)Cc2ccc(C)o2)cc1`, inactive: 10.5%.
On to `CCOc1ccccc1NC(=O)c1cnn2c(C(F)F)cc(-c3ccccc3)nc12`, for which the “activation” value was inactive: -9.54%.
Regarding `COCCCNC(=O)C1CCN(c2nn3cc(-c4ccc(F)cc4)nc3s2)CC1`, the “activation” value was inactive: -10.5%.
As to `COc1cccc(CCNC(=O)c2c(O)nc3ccccn3c2=O)c1`, the “activation” value was inactive: -9.54%.
Consider `CC(C)c1cccc(OCCn2c(-c3ccc(Cl)cc3)nc3ccccc3c2=O)c1`, for which the “activation” value is inactive: -14.6%.
For the molecule `Cc1ccccc1C(=O)OCc1cc(=O)n2nc(-c3cccs3)sc2n1`, the “activation” value was inactive: 2.16%.
Regarding `Cc1ccc(C)c(NC(=O)c2cc(S(=O)(=O)N3CCCCCC3)ccc2F)c1`, the “activation” value was inactive: -8.48%.
For the molecule `CN(C)CCN(Cc1ccco1)C(=O)c1oc2ccccc2c1NC(=O)c1ccccc1`, the “activation” value is inactive: -7.42%.
Take `CC1=C(C(=O)Nc2ccccc2)C(c2cccs2)n2nc(SCc3ccccc3F)nc2N1` (configuration not stated): the “activation” value was inactive: -0.917%.
Regarding `O=C(Nc1cc(F)ccc1F)N1CCC(CN2CCCC2)CC1`, the “activation” value was inactive: -6.87%.
For the molecule `CN(C)[C@@H]1C(=O)C(C(N)=O)=C(O)[C@@]2(O)C(=O)C3=C(O)c4c(O)ccc(Cl)c4[C@@H](O)[C@H]3C[C@@H]12`, the “activation” value was inactive: -13.5%.
On to `CN1C(=O)Cc2cc(S(=O)(=O)CCC(=O)Nc3ccc(F)c(Cl)c3)ccc21`, for which the “activation” value was inactive: -8.1%.
The result for `O=C(CSc1nnc(NC(=O)Nc2ccccc2)s1)Nc1cccc(F)c1` reads inactive: -2.84%.
For `Cn1cc(S(=O)(=O)c2cccc(Cl)c2)c(=O)c2cc(F)c(N3CCN(c4ccccc4)CC3)cc21` the value was inactive: -16.5%; for `Cc1ccc2c(=O)c(C(=O)c3cccc(Cl)c3)cn(CC(=O)Nc3ccc4c(c3)OCCO4)c2n1`, inactive: -12.7%; for `COc1ccc(CCCc2nnc(SCC(=O)Nc3ccc(OC)cc3)o2)cc1`, inactive: -5.6%.
For `CCCc1nn2c(=O)cc(COC(=O)c3ccccc3NC(=O)c3ccc(Cl)cc3)nc2s1` the value was inactive: -16.9%; for `CCc1ccccc1Nc1cc(C(=O)NC(C)c2ccccc2)c2ccccc2n1` (configuration not stated), inactive: -10.7%.
Take `COc1cc(C2c3c(-c4cc(C)ccc4O)n[nH]c3C(=O)N2CCCO)ccc1OCCC(C)C` (configuration not stated): the “activation” value is inactive: -18.8%.
With `CCOC(=O)c1cccc(NC(=O)CCn2nc(C)c(S(=O)(=O)N3CCCCC3)c2C)c1`, the “activation” value is inactive: -18%.
The result for `CCCC(=O)Nc1ccc(-c2nc3ncccc3o2)cc1C` reads inactive: -19.5%; that for `Cc1ccc(NC(=O)C(C)Sc2nc(=O)cc(N)n2-c2ccccc2)cc1` (configuration not stated), inactive: 23.2%; that for `CCOC(=O)c1ccccc1NC(=O)N1CCC(CN2CCCCC2)CC1`, inactive: -15.5%.
Consider `CCOc1ccc(NC(=O)CN2CCCN(Cc3cc(C)ccc3C)S2(=O)=O)cc1`, for which the “activation” value is inactive: -25.7%.
Regarding `COc1ccc2c(c1)CCCC2=O`, the “activation” value was inactive: -10.9%.
With `COCCNC(=O)c1cccc(-n2c(C)nc3cccnc32)c1`, the “activation” value is inactive: -0.375%.
On to `Cc1nc(-c2cccnc2)sc1CCNS(=O)(=O)c1ccc(F)cc1`, for which the “activation” value was inactive: 4.78%.
The result for `COc1ccc2c(CNCCc3ccco3)c(C(=O)O)n(Cc3ccccc3)c2c1` reads inactive: -7.1%.
Regarding `CCOc1ccc(NC(=O)C2CCN(c3nnc(-n4c(C)ccc4C)s3)CC2)cc1`, the “activation” value is inactive: -6.39%.
As to `COc1ccc(NC(=O)CSc2nc3ccccc3n2Cc2cccc(OC)c2)cc1`, the “activation” value was inactive: -18.6%.
As for `COc1cc(OC)cc(-n2c(=O)c3sccc3n(Cc3c(C)cc(C)cc3C)c2=O)c1`, the “activation” value was inactive: 2.13%.
With `Cc1ccc(NC(=O)c2cc(S(=O)(=O)N3CCc4ccccc43)ccc2F)cc1Cl`, the “activation” value is inactive: -15.2%.
As for `COc1ccc(-c2cc(C(F)(F)F)nc(SCC(=O)NCCc3ccccc3)n2)cc1OC`, the “activation” value is inactive: -20.9%.
In the case of `CCc1sc(Nc2cccc(C)c2C)nc1-c1cc2cccc(OC)c2oc1=O`, the “activation” value was inactive: -9.57%.
`CCc1ccc(-n2c(=O)c3cccnc3n2CC(=O)Nc2cc(F)ccc2F)cc1`: the “activation” value was inactive: -20.4%.
For the molecule `CCOC(=O)N1CCc2c(sc(NCc3cc(OC)c(OC)cc3OC)c2C(=O)Nc2ccc(OCC)cc2)C1`, the “activation” value is inactive: -14.1%.
Consider `CCN(CC)C(=O)Cn1cc(SCC(=O)Nc2ccccc2C)c2ccccc21`, for which the “activation” value is inactive: -16.3%.
Take `CC(=O)Oc1cc2c(s1)CCN(C(C(=O)C1CC1)c1ccccc1F)C2` (configuration not stated): the “activation” value is inactive: -0.925%.
With `CCOC(=O)c1cccc(NC(=O)NCc2ccc3c(c2)CCN3C(=O)c2ccccc2)c1`, the “activation” value is inactive: -11.3%.
In the case of `Cc1cccc(-c2nc(SCCCOc3ccc(Cl)c(C)c3)n3[nH]c(=O)cc3n2)c1`, the “activation” value was inactive: -7.17%.
Take `CCOC(=O)c1ccc(-c2ccc(/C=C(\C#N)C(=O)Nc3ccc(OCC)cc3)o2)cc1`: the “activation” value was inactive: -8.48%.
Turning to `CC(O)CCCCn1c(=O)c2c(ncn2C)n(C)c1=O` (configuration not stated), the “activation” value is inactive: -14.6%.
For `CCN1CCN(c2ncc3c(n2)CCN(Cc2ccc(OC(C)C)cc2)C3)CC1` the value was inactive: -7.88%.
